From the antibiotic and cytotoxicity screens of Wong et al. (2023)
This is one part of the list.

Key:
HSkMC = human skeletal muscle cells; experiment: cytotoxicity call (relative viability < 0.9); conditions: 10 µM
HepG2 = experiment: cytotoxicity call (relative viability < 0.9); conditions: 10 µM
S. aureus RN4220 = experiment: growth inhibition call (relative growth <= 0.2); conditions: 50 µM

| SMILES | cytotoxicity call (HSkMC) | cytotoxicity call (HepG2) | growth inhibition call (S. aureus RN4220) |
| --- | --- | --- | --- |
| CC(C)NC(=O)Nc1ccc2c(c1)C(=O)N([C@@H](C)CO)C[C@H](C)[C@H](CN(C)Cc1ccc3c(c1)OCO3)O2 | inactive | inactive | inactive |
| NCc1ccccc1CC(=O)NC1C(=O)N2C(C(=O)O)=C(CSc3nnnn3CC(=O)O)CSC12 (configuration not stated) | inactive | inactive | active |
| C[C@H](CO)N1C[C@H](C)[C@H](CN(C)C(=O)Nc2ccccc2F)OCCCC[C@H](C)Oc2ccc(NC(=O)C3CCCCC3)cc2C1=O | inactive | inactive | inactive |
| COc1ccc(NC(=O)Nc2ccc3c(c2)CC(=O)N([C@@H](C)CO)C[C@@H](C)[C@@H](CN(C)S(C)(=O)=O)O3)cc1 | inactive | inactive | inactive |
| COc1ccc(S(=O)(=O)Nc2ccc3c(c2)C(=O)N([C@@H](C)CO)C[C@@H](C)[C@H](CN(C)S(=O)(=O)c2ccc(OC)cc2)O3)cc1 | inactive | inactive | inactive |
| C[C@@H]1CN([C@@H](C)CO)C(=O)c2cc(C3=CCCC3)cnc2O[C@@H]1CN(C)S(=O)(=O)c1cn(C)cn1 | inactive | inactive | inactive |
| C[C@H](CO)N1C[C@H](C)[C@H](CN(C)Cc2ccc(C(F)(F)F)cc2)OCCCC[C@H](C)Oc2ccc(NS(=O)(=O)c3cccs3)cc2C1=O | inactive | active | inactive |
| C[C@H](CO)N1C[C@H](C)[C@H](CN(C)S(=O)(=O)c2ccccc2)Oc2c(NC(=O)C3CCOCC3)cccc2C1=O | inactive | inactive | inactive |
| CC(C)(N)CO.Cn1c(=O)c2[nH]c(Br)nc2n(C)c1=O | inactive | inactive | inactive |
